Experimental data: PubChem BioAssay (NCI)
Several values for one entry are separate records, joined by “and”; a condition that tells them apart may be missing. Identical values can stand only once.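 A five-concentration, 48-hour dose response in 96-well plates underlies each endpoint, interpolated linearly between surrounding concentrations. Abbreviation: GI50, concentration required for 50% inhibition of growth. TGI is the concentration that stops growth completely.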

tested on: NCI-H322M lung; experiment: NCI anticancer screen, dose series, 48 h

Row | Structure (SMILES) | TGI | GI50
1 | COc1cc(/C=C/c2cc(O)c(C/C=C(\C)CC/C=C(\C)CO)c(O)c2)cc2c1O[C@]1(C)CC[C@@H](O)C(C)(C)[C@H]1C2 | > 100 µM | 
2 | CCCCCCSc1nc(COC(=O)NC)c(COC(=O)NC)n1C | > 100 µM | 
3 | COC(=O)NC(=O)c1cn(C2CCCCC2)c(=O)[nH]c1=O | > 100 µM | 
4 | N=C(N)SCc1cccc([N+](=O)[O-])c1 | > 100 µM | 
5 | CCOC(=O)c1c2ccc(/C=C/c3ccccc3)ccc-2c(C(=O)OCC)c1N | > 100 µM | 
6 | CC12CC(=O)C3C(CCC4=CC(=O)CCC43C)C1CC=C2CC(=O)O (stereo unspecified) | > 100 µM | 
7 | CS(=O)(=O)N1CCc2c(-c3cnc(N)nc3)nc(N3CCOCC3)nc21 | > 8.14 µM and 8.65 µM | 0.389 µM and 0.57 µM
8 | Cc1cc2c(cc1Cl)SC(C(=O)c1ccc(Cl)c(Cl)c1)NS2(=O)=O (stereo unspecified) | > 100 µM | 50.9 µM
9 | CC1(C)OC(=O)C(=Cc2ccc([N+](=O)[O-])s2)C(=O)O1 | > 100 µM | 
10 | Oc1ccc(-c2nc3cc(F)ccc3s2)cc1 | 67.7 µM | 
11 | O=C(/C=C/c1ccccc1)OCC1=C[C@@H](O)[C@@H]2C=CO[C@@H](OC3OC(CO)C(O)C(O)C3O)[C@H]12 (stereo partly specified) | > 100 µM | 
12 | CC(=O)Oc1ccc(/C=C/C(=O)OCCOC(=O)/C=C/c2ccc(OC(C)=O)c(OC(C)=O)c2)cc1OC(C)=O | > 71.1 µM | 
13 | O=C(c1ccco1)c1c(C(F)(F)F)n([O-])c2ccc(F)cc2[n+]1=O | 19.9 µM | 6.05 µM
14 | CCOC(=O)CC(NCc1ccc(N=Cc2nc3ccc(C(F)(F)F)cc3nc2-c2ccccc2)cc1)C(=O)OCC (stereo unspecified) | > 100 µM | 
15 | O=c1oc2c/c(=C\c3ccccn3)c(=O)c3cccc1c3-2 | > 100 µM | 
16 | COC(=O)C(Cc1nc2ccccc2[nH]c1=O)C(=O)C(=O)Nc1ccc(F)cc1 (stereo unspecified) | > 100 µM | 
17 | C=C1C(=O)C2(C)OC2(C)C1C(=O)O (stereo unspecified) | > 100 µM | 
18 | N=c1oc2ccccc2cc1C(=O)Nc1nccs1 | > 100 µM | 
19 | CCCCCC(=Nc1n[nH]nc1C(N)=O)OCC | > 100 µM | 
20 | Cc1cc(N)cc(C)c1-c1c(Br)cc(N)cc1Br | > 100 µM | 8.63 µM
21 | COc1c2ccccc2c(O)c2c(=O)ccn(C)c12 | 47.8 µM | 10.2 µM
22 | CNc1ncnc2c1cnn2CCCCO | > 100 µM | 
23 | Cc1ccc([N+](=O)[O-])cc1S(=O)(=O)Nc1ccc(C2=NOC(c3ccccc3O)C2)cc1 (stereo unspecified) | > 100 µM | 
24 | N=C1/C(=C2\Nc3ccccc3S2)CC(=O)N1c1ccc(SC(F)F)cc1 | > 100 µM | > 100 µM

Row | Structure (SMILES) | TGI | GI50
25 | COc1ccc(-c2nc3sccn3c2-c2ccnc(NCCCNS(=O)(=O)c3ccc(F)cc3)n2)cc1 | > 100 µM | 3.69 µM
26 | COc1ccc2c(c1)C(=O)c1c-2c(N2CCN(C(=O)CCNCCNCCO)CC2)nc2ccccc12 | 42.1 µM | 21.4 µM
27 | COc1cc(-c2nn(-c3cccc(NC(=O)CCN4CCN(C)CC4)c3)cc2-c2ccncc2)ccc1Cl | 11.6 µM | 2.87 µM
28 | Nc1c(Br)cc(-c2nc3ccccc3s2)cc1Br | > 100 µM | 
29 | O=C(O)c1nc2ccccc2nc1NCc1ccc(F)cc1 | > 100 µM | 
30 | COC1=CC(=O)C2C(C1=O)C(c1ccc(Cl)cc1)[C@@H]2C (stereo partly specified) | > 100 µM | 
31 | COC(=O)C1(O)c2ccccc2N=C2C1CCN2C (stereo unspecified) | > 100 µM | 
32 | Cn1ccoc1=Nc1ccc(Cl)c(Cl)c1 | > 10 µM | 
33 | COC(=O)/C=C1\CCCN1CCc1cc2c(cc1CC#N)OCO2 | > 100 µM | 
34 | COC(=O)C(/C(=N/N)C(=O)Nc1cccc(O)c1)c1nc2ccccc2[nH]c1=O (stereo unspecified) | > 100 µM | 
35 | O=C1NC(=N[C@H](CO)c2ccccc2)S/C1=C\c1ccc2ncccc2c1 | 13 µM | 2.14 µM
36 | FC(F)(F)c1ccc(NCc2nc3ccccc3[nH]2)cc1 | > 100 µM | 45.5 µM
37 | Cn1cnc([N+](=O)[O-])c1Sc1nc2ccc([N+](=O)[O-])cc2[nH]1 | 73.9 µM | 
38 | COc1cc(/C=C/c2ccccn2)cc(OC)c1OC | > 10 µM | 
39 | NC(=O)c1cc([N+](=O)[O-])cc([N+](=O)[O-])c1 | > 100 µM | 
40 | CC1CC(c2ccc(Cl)c(Cl)c2)=Nc2ccccc2S1 (stereo unspecified) | > 100 µM | 
41 | COc1ccc(/C=C2\N=C(c3ccccc3)OC2=O)cc1OC(C)=O | > 100 µM | 
42 | C[N+]1(C)C[C@@H](O)C[C@@H]1C(=O)[O-] | > 100 µM | 
43 | COc1ccc2c(c1)CCc1c-2n(CCN2CCOCC2)c2ccc(OC)cc12 | > 100 µM | 
44 | COC(=O)[C@@H]1COC(C(C)(C)C)N1C(=O)C(c1ccccc1)c1ccccc1 (stereo partly specified) | > 100 µM | 
45 | O=C(NNC(=O)c1ccccc1O)c1ccco1 | > 100 µM | 
46 | CN(C)c1ccc(/C=c2/c3ccccc3n3c2cc(NC(=O)NCCC[N+](C)(C)C)[n+]3C)cc1 | > 100 µM | 
47 | CC1COCCN1CC#CCOC(=O)c1cc2ccccc2oc1=O (stereo unspecified) | > 100 µM | > 100 µM
48 | C[C@H](c1ccccc1)N(CCC(=O)O)C(=O)CCN(C(=O)CCN(C(=O)CCN[C@H](C)c1ccccc1)[C@H](C)c1ccccc1)[C@H](C)c1ccccc1 | > 100 µM | > 100 µM
